{"source": "PubChem BioAssay AID485344", "about": "(National Center for Advancing Translational Sciences (NCATS), 2010)", "note": "Hit rate of the full screen: of about 340,000 compounds, about 6,900 (2%) were called active. No stated cut-off is given here; in the data, active means inhibition above about 30%; inactive means below that, where a call was filed. The list shows a part of the results, in another mix than the full data. Entries without a call were filed so in the source."}
{"target": "D(2) dopamine receptor (Homo sapiens) (UniProt P14416)", "sequence (P14416 whole entry, looked up)": "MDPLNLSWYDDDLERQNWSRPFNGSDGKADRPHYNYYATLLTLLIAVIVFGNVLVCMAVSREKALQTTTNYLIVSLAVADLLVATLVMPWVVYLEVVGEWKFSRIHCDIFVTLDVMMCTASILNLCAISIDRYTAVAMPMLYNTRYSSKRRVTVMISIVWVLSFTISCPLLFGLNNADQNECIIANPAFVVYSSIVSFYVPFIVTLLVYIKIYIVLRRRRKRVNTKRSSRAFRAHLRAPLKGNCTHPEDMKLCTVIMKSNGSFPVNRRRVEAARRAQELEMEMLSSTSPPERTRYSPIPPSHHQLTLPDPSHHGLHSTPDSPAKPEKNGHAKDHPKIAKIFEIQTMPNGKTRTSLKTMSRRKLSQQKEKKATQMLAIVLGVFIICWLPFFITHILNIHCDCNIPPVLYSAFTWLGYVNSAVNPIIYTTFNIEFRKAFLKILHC", "assay": "HTS Assay for Allosteric Antagonists of the Human D2 Dopamine Receptor: Primary Screen for Antagonists; further: 0% is about no effect", "conditions": "HEK293 TREx D2 cells, calcium flux, dopamine EC80; at 10 µM; stronger effect = higher value", "summary_of_the_method": "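Overnight-induced (tetracycline, 30 C) HEK293 T-REx cells carrying force-coupled D2 receive a no-wash calcium dye, then compound, then EC80 dopamine at 180 s; signals are read kinetically throughout.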"}
{"compound": "CCc1ccccc1NC(=O)Nc1cc(C(=O)NCc2ccccc2OC)ccc1N1CCCC1", "inhibition": "-4.94%"}
{"compound": "CCn1cc2nc(SCc3cccc(C)c3)n(CCc3ccccc3)c(=O)c2n1", "inhibition": "-5.89%"}
{"compound": "COc1ccc(C(=O)Nc2c3c(nn2C(C)(C)C)CS(=O)(=O)C3)cc1OC", "inhibition": "active: 35.1%"}
{"compound": "Cc1nc2c(-c3ccccc3)c(C)nn2c(C)c1CCC(=O)NCc1ccccc1", "inhibition": "0.587%"}
{"compound": "Cc1ccc(S(=O)(=O)n2nc(-c3ccco3)nc2NCc2ccc(N(C)C)cc2)cc1", "inhibition": "-18.1%"}
{"compound": "CCc1ccc2oc(-c3ccc(C)c(NC(=O)c4ccc(C#N)cc4F)c3)nc2c1", "inhibition": "-1.86%"}
{"compound": "CCOC(=O)c1ccc(NC(=O)CCC(=O)N2CCSc3ccccc32)cc1", "inhibition": "-5.65%"}
{"compound": "O=C(Cn1cc(S(=O)(=O)c2ccccc2)c(=O)c2cc3c(cc21)OCO3)Nc1ccccc1", "inhibition": "11.4%"}
{"compound": "Cn1cc(S(=O)(=O)N2CCCCC2)cc1C(=O)Nc1ccc(OC(F)(F)F)cc1", "inhibition": "17.6%"}
{"compound": "O=C(NCCCc1ccccc1)c1nn(-c2ccccc2)nc1CO", "inhibition": "7.49%"}
{"compound": "Cc1noc(-c2ccc(-c3noc(-c4cccc(Cl)c4)n3)cc2)n1", "inhibition": "-10.1%"}
{"compound": "Cc1ccc(S(=O)(=O)C(CNC(=O)c2ccc(C(F)(F)F)cc2)c2ccco2)cc1", "note": "(stereo unspecified)", "inhibition": "24%"}
{"compound": "CCc1ccc2occ(CC(=O)Nc3sc4c(c3C(=O)NCCOC)CCCC4)c2c1", "inhibition": "1.33%"}
{"compound": "Cc1nc2nc(SCC(=O)NC3CCC(C)CC3)nn2c(C)c1Cc1ccccc1Cl", "note": "(stereo unspecified)", "inhibition": "-13.2%"}
{"compound": "Cc1[nH]c2ccc(C(=O)NCCCN(C)C3CCCCC3)cc2c1C", "inhibition": "active: 34%"}
{"compound": "COc1ccc(OC)c(NC(=O)c2c(NCc3ccc(N(C)C)cc3)sc3c2CCCC3)c1", "inhibition": "3.56%"}
{"compound": "COc1ccc(NC(=O)c2oc3ccccc3c2NC(=O)C23CC4CC(CC(C4)C2)C3)cc1", "inhibition": "-8.52%"}
{"compound": "O=C(CCCc1ccccc1)Nc1ccnn1C1CCN(Cc2ccccc2)CC1", "inhibition": "active: 40.7%"}
{"compound": "COC(=O)[C@@]1(Cc2ccc(OC)cc2)[C@@H]2C(=CC(=O)[C@H]2CC(=O)C(=O)N2CCCC2)CN1C(=O)c1ccccc1", "inhibition": "active: 38%"}
{"compound": "O=C(NCc1ccccc1Cl)c1ccc(NC(=O)N2CCSc3ccccc32)cc1", "inhibition": "1.16%"}
{"compound": "COc1ccc(S(=O)(=O)N(CC(=O)Nc2ccc3c(c2)OCO3)c2ccc(C)cc2)cc1", "inhibition": "-15.8%"}
{"compound": "Cc1ccc(OCc2cc(=O)n3c4c(sc3n2)CCCC4)cc1C", "inhibition": "16.9%"}
{"compound": "COc1cc(OC)cc(C(=O)Nc2ccc3c(c2)n(C)c(=O)c(=O)n3C)c1", "inhibition": "-1.19%"}
{"compound": "Cc1cc(NCc2ccc(Cl)cc2)n2cnnc2n1", "inhibition": "-15.9%"}
{"compound": "CCc1ccc(NS(=O)(=O)c2c(-c3ccccc3)csc2C(=O)OC)cc1", "inhibition": "-2.85%"}
{"compound": "O=C(Nc1nnc(S(=O)(=O)N2CCCCCC2)s1)c1ccccc1", "inhibition": "-4.05%"}
{"compound": "COc1ccccc1N(CC(=O)Nc1cc(C)cc(C)c1)S(C)(=O)=O", "inhibition": "-2.1%"}
{"compound": "Cc1cccc(-c2noc(-c3ccc(NCc4cccnc4)c([N+](=O)[O-])c3)n2)c1", "inhibition": "-28.6%"}
{"compound": "O=C(Nc1ccc(F)cc1)c1ccc2c(c1)NC(=O)c1ccccc1S2", "inhibition": "3.83%"}
{"compound": "CCc1cccc(NC(=O)Cn2ccn3nc(-c4ccc(OC)c(OC)c4)cc3c2=O)c1", "inhibition": "20.8%"}
{"compound": "Nc1nonc1-c1nc2ccccc2n1CC(=O)Nc1cccc(Cl)c1Cl", "inhibition": "-3.63%"}
{"compound": "CC1=C(C(=O)Nc2ccccc2)C(c2ccccn2)n2nc(SCc3ccccc3Cl)nc2N1", "note": "(stereo unspecified)", "inhibition": "-2.4%"}
{"compound": "Cc1ccccc1NC(=O)Cn1cc(S(=O)(=O)N2CCCC2)c(S(=O)(=O)N2CCCC2)c1", "inhibition": "-11.5%"}
{"compound": "CCOc1ccc(NC(=O)c2nnn(-c3ccc(F)c(Cl)c3)c2C)cc1", "inhibition": "-5.22%"}
{"compound": "CCC(=O)Nc1cccc(OCc2cc(=O)n3cc(C)ccc3n2)c1", "inhibition": "0.0731%"}
{"compound": "COC(=O)c1ccc(Oc2nc3c(c(=O)n(C)c(=O)n3C)n2Cc2ccc(Cl)c(Cl)c2)cc1", "inhibition": "9.11%"}
{"compound": "Cc1nnc2ccc(-c3ccc(NS(C)(=O)=O)cc3)nn12", "inhibition": "active: 32.6%"}
{"compound": "CC(=O)c1ccc(N2C(=O)Nc3ccccc3S2(=O)=O)cc1", "inhibition": "-13.8%"}
{"compound": "CC(C)Sc1nc2sc3c(c2c(=O)n1-c1ccccc1)CCCC3", "inhibition": "-12%"}
{"compound": "CCn1c(=O)c2ccccc2n(CC(=O)NC2CCCCC2)c1=O", "inhibition": "active: 41.7%"}
{"compound": "Cc1ccc(CSc2cn(CCNC(=O)c3cccs3)c3ccccc23)cc1", "inhibition": "-7.6%"}
{"compound": "O=C(Nc1ccc(F)c(Cl)c1)C1CCN(S(=O)(=O)c2ccc3c(c2)CCCN3C(=O)C2CCC2)CC1", "inhibition": "-16.2%"}
{"compound": "Cc1ccc(N2CC(NC(=O)c3ccccc3Br)CC2=O)cc1", "note": "(stereo unspecified)", "inhibition": "-7.46%"}
{"compound": "O=C(Cn1c(SCC(=O)Nc2ccc(F)cc2)nc2ccccc21)NCc1ccc(Cl)cc1", "inhibition": "14.1%"}
{"compound": "Nc1ncc(S(=O)(=O)Nc2ccc(OC(F)(F)F)cc2)cn1", "inhibition": "0.858%"}
{"compound": "CCOC(=O)c1ccccc1NC(=O)Cn1c(=O)n(-c2ccc(CC)cc2)c(=O)c2c(C)c(C(=O)N(C)C)sc21", "inhibition": "21%"}
{"compound": "CCOc1ccccc1CNC(=O)c1ccc2c(c1)nc1n2CCC(C)C1", "note": "(stereo unspecified)", "inhibition": "11.8%"}
{"compound": "C=CCOc1ccccc1CN1CCC(CO)(CCOc2ccccc2)CC1", "inhibition": "active: 63.8%"}
{"compound": "CCN(CC)c1ccc(CNS(=O)(=O)c2cc3c(cc2C)NC(=O)CO3)cc1", "inhibition": "4.17%"}
{"compound": "Cc1ccc(S(=O)(=O)N2CCOCC2)cc1C(=O)OC1CCOC1=O", "note": "(stereo unspecified)", "inhibition": "active: 40.9%"}
{"compound": "COc1ccc(NC(=O)CSc2ncc3c(n2)-c2ccccc2N(C)S3(=O)=O)cc1Cl", "inhibition": "2.9%"}
{"compound": "CCOc1ccc(NC(=O)Nc2c[nH]c(=O)[nH]c2=O)cc1", "inhibition": "-3.42%"}
{"compound": "Cn1c(SCc2ccccc2Cl)nc(=O)c2c1NC(=O)CC2c1cc(F)ccc1F", "note": "(stereo unspecified)", "inhibition": "0.0538%"}
{"compound": "CCOc1ccc(C(=O)NCCc2sc(-c3ccc(F)cc3)nc2C)cc1", "inhibition": "4.53%"}
{"compound": "CCOC(=O)c1ccc(NC(=O)CN2C(=O)c3cccnc3Sc3ccccc32)cc1", "inhibition": "7.64%"}
{"compound": "CC1(OC(=O)C2CCCC2)C(=O)C=C2C=C(c3ccsc3)N(c3ccccc3)C=C2C1=O", "note": "(stereo unspecified)", "inhibition": "active: 36%"}
{"compound": "COc1ccc(Nc2ncc(C(=O)N3CCN(c4ccccc4OC)CC3)c3ccccc23)cc1", "inhibition": "16.1%"}
{"compound": "Cc1ccccc1Cn1c(=O)n(CCCCCC(=O)NCc2ccc3c(c2)OCO3)c(=O)c2sccc21", "inhibition": "-8.7%"}
{"compound": "O=C(Cn1ncc2c3ccccc3n(Cc3cccc(Cl)c3)c2c1=O)NCCC1=CCCCC1", "inhibition": "3.71%"}
{"compound": "COc1ccc(-c2nc3cc(NC(=O)COc4ccc(C)c(C)c4)ccc3o2)cc1", "inhibition": "-2.27%"}
{"compound": "Cc1cc(=O)c2cc(C(=O)Nc3cccc(C)c3C)ccc2[nH]1", "inhibition": "22.8%"}
